Measured values reported in the supplement of paper PMC6206098.
± gives the uncertainty stated by the source. The sequences are guide strands of siRNAs; only the seed at positions 2 to 7 varies.

What was measured:
3LL = assay: cell viability relative to siNT1 control; higher = less toxic; conditions: concentration: 10 nM; 96 h; Mus musculus;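 also: Luminescence-based viability of cells reverse transfected in 384-well plates with lipid-complexed siRNAs built on a non-toxic 19mer backbone whose passenger strand carries 2′-O-methyl groups at positions 1 and 2, triplicates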
H460 = assay: cell viability relative to lipid-only control; HeyA8 human ovarian and H460 human lung cancer; M565 mouse liver and 3LL mouse lung cancer; siNT1 is a non-toxic control siRNA; higher = less toxic; conditions: concentration: 10 nM; 96 h; Homo sapiens
HeyA8 = assay: as above; conditions: concentration: 10 nM; 96 h; Homo sapiens
M565 = assay: as above; conditions: concentration: 10 nM; 96 h; Mus musculus
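For cell viability relative to lipid-only control in this document: reverse lipid transfection in 384-well plates, in triplicate, of duplexes on a non-toxic 19mer backbone with passenger strand 2′-O-methylated at positions 1 and 2, luminescence viability read-out.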

Sequence	cell viability (3LL) [%]	cell viability (H460) [%]	cell viability (HeyA8) [%]	cell viability (M565) [%]
UAUUUCAACAUGUAAACCAAA	67.7 ± 8.4	84.9 ± 5.2	69 ± 3.6	76.2 ± 6.2
UGCGAUCACAUGUAAACCAAA	92.8 ± 9.7	12.5 ± 1.2	41.7 ± 3.7	47.8 ± 7.6
UAUUCAUACAUGUAAACCAAA	82.7 ± 20	76.8 ± 8.2	97.3 ± 14	81.5 ± 10
UCCGAGUACAUGUAAACCAAA	93.8 ± 20	63.4 ± 8.6	81.5 ± 4.5	49.5 ± 7.2
UACGGCAACAUGUAAACCAAA	74 ± 12	77 ± 16	69.6 ± 7.5	68.7 ± 5.2
UGGUAGAACAUGUAAACCAAA	37.1 ± 3.8	42.8 ± 1.4	65.7 ± 6.2	43.8 ± 7.3
UUCGUUCACAUGUAAACCAAA	66.1 ± 14	61.7 ± 0.74	59.1 ± 5.2	32.9 ± 2.8
UCUGGGCACAUGUAAACCAAA	22.5 ± 5.6	16.9 ± 2.6	2.52 ± 0.071	11.3 ± 1.5
UUGGCUAACAUGUAAACCAAA	99.8 ± 7.6	102 ± 11	81.5 ± 3.1	68.4 ± 6.6
UACAGCCACAUGUAAACCAAA	3 ± 1.2	37.6 ± 3	37.3 ± 3.8	3.79 ± 1.2
UACGUAGACAUGUAAACCAAA	83.9 ± 14	79.5 ± 13	83.9 ± 10	60.6 ± 6.7
UUGUCCAACAUGUAAACCAAA	66.7 ± 5.6	61.1 ± 8.5	87.4 ± 8.5	45.5 ± 2.8
UUGGAGUACAUGUAAACCAAA	58.2 ± 6	75 ± 5.4	71.6 ± 6.1	26.3 ± 2.9
UGGAAAUACAUGUAAACCAAA	92 ± 16	61.8 ± 7.6	56.5 ± 3.9	80.1 ± 11
UCGACUAACAUGUAAACCAAA	90 ± 14	93.1 ± 8.4	84.3 ± 7.3	69.2 ± 6.4
UAGAUCCACAUGUAAACCAAA	21.8 ± 3.3	55 ± 8.2	62.2 ± 7.8	16.3 ± 2.3
UGAAAUUACAUGUAAACCAAA	94.7 ± 19	83 ± 13	73.7 ± 4.4	60.7 ± 12
UUGCGCAACAUGUAAACCAAA	87.8 ± 1.9	97 ± 6.2	88.5 ± 12	93.9 ± 17
UGGUACCACAUGUAAACCAAA	49.2 ± 5.4	34.9 ± 1.3	20.9 ± 5.7	21.3 ± 4.2
UUAACUUACAUGUAAACCAAA	93.7 ± 10	76.4 ± 9.2	93.2 ± 3.9	116 ± 15

Sequence	cell viability (3LL) [%]	cell viability (H460) [%]	cell viability (HeyA8) [%]	cell viability (M565) [%]
UGGCUUCACAUGUAAACCAAA	54.3 ± 3.7	30 ± 3.3	8.58 ± 1.6	32 ± 11
UGUCCGCACAUGUAAACCAAA	8.62 ± 3	32.8 ± 1.4	51.9 ± 3.2	5.64 ± 1.3
UCGGAACACAUGUAAACCAAA	76.3 ± 18	47.8 ± 16	70.4 ± 2.7	26.5 ± 5.3
UCAGACAACAUGUAAACCAAA	95.6 ± 20	60.5 ± 6.8	97.6 ± 1.5	69.8 ± 8.5
UCCGGGGACAUGUAAACCAAA	56.7 ± 9.7	54.6 ± 2.8	40.5 ± 4.6	58.8 ± 3.6
UCUAUCGACAUGUAAACCAAA	95 ± 16	78.2 ± 0.89	80 ± 2.1	80.5 ± 18
UUCUGUAACAUGUAAACCAAA	76.2 ± 0.66	66.8 ± 12	90 ± 12	52.9 ± 5.3
UAGGGAUACAUGUAAACCAAA	61.4 ± 12	42.1 ± 0.47	19.2 ± 1.3	29.9 ± 4.3
UAUUAUAACAUGUAAACCAAA	108 ± 23	91.5 ± 10	94 ± 7.3	95.6 ± 9.2
UUUAUGGACAUGUAAACCAAA	79.9 ± 5.3	70.4 ± 10	63 ± 7.5	31.6 ± 6.5
UUACUUAACAUGUAAACCAAA	95.9 ± 8.5	73 ± 9	89.5 ± 3.2	75 ± 8.5
UGCACUAACAUGUAAACCAAA	88.4 ± 9.7	68 ± 10	80.1 ± 7.8	60.6 ± 1.9
UAUGAAGACAUGUAAACCAAA	98.1 ± 4.7	70.7 ± 5	103 ± 6.7	81.4 ± 22
UUCCGUUACAUGUAAACCAAA	43.4 ± 9.3	72.3 ± 3.8	93.4 ± 10	39.8 ± 2.3
UUUCCAGACAUGUAAACCAAA	90 ± 3.6	66.4 ± 10	90.5 ± 4.8	81.9 ± 12
UUUAGGCACAUGUAAACCAAA	68.1 ± 5.4	69.3 ± 3.3	62.3 ± 3.9	38.1 ± 0.6
UGGAUCUACAUGUAAACCAAA	74.7 ± 5.9	36.8 ± 3.1	10.1 ± 1.4	47.5 ± 9.9
UCGCGGAACAUGUAAACCAAA	93.2 ± 16	60.7 ± 1.7	62.02 ± 0.55	85.2 ± 8.6
UCUGGAAACAUGUAAACCAAA	96.2 ± 12	72.5 ± 5.6	90.1 ± 3.6	62.3 ± 9.7
UGGGUCCACAUGUAAACCAAA	19.8 ± 2.3	25.2 ± 2.1	8.1 ± 0.68	9.06 ± 1.3

Sequence	cell viability (3LL) [%]	cell viability (H460) [%]	cell viability (HeyA8) [%]	cell viability (M565) [%]
UGAGGGCACAUGUAAACCAAA	60.8 ± 8.9	13.4 ± 0.65	3.07 ± 0.62	3.66 ± 0.6
UGCCUCUACAUGUAAACCAAA	48 ± 4.7	39.4 ± 1.8	61.1 ± 4.4	4.18 ± 1.1
UAUAAAUACAUGUAAACCAAA	103 ± 20	75.7 ± 5.3	98.8 ± 9.8	88.8 ± 13
UGGUAUUACAUGUAAACCAAA	84 ± 12	63.4 ± 16	53.9 ± 10	73.9 ± 4.9
UCCGCAAACAUGUAAACCAAA	106 ± 23	62.8 ± 3.2	79.8 ± 3.3	79.5 ± 18
UAGCGGGACAUGUAAACCAAA	48 ± 6.2	31.5 ± 4.7	8.36 ± 0.3	42.1 ± 9.5
UUCGUCAACAUGUAAACCAAA	105 ± 15	76.1 ± 1.9	93.5 ± 16	75 ± 6.6
UCGGUGAACAUGUAAACCAAA	92.4 ± 12	58.3 ± 3	81.6 ± 4.4	56.3 ± 8
UGAUGACACAUGUAAACCAAA	54.6 ± 10	41 ± 3.6	30.1 ± 4.1	44.9 ± 7.1
UGCUUGUACAUGUAAACCAAA	52.8 ± 5.8	57.4 ± 9.2	11.9 ± 0.54	29.2 ± 6.6
UCAAGCCACAUGUAAACCAAA	38.4 ± 14	32.6 ± 2.1	30.7 ± 2.4	5.41 ± 1.4
UCUAGCGACAUGUAAACCAAA	92.3 ± 12	53.5 ± 5.2	86.5 ± 3.9	67.4 ± 17
UUUGGUUACAUGUAAACCAAA	106 ± 7.9	88.8 ± 9.2	103 ± 5.9	90.2 ± 11
UUUAUAAACAUGUAAACCAAA	101 ± 5.4	91.8 ± 11	96.8 ± 8.2	96 ± 7.5
UCCUUCUACAUGUAAACCAAA	94.3 ± 14	70.1 ± 12	41 ± 2.9	79 ± 3.3
UUUUUCGACAUGUAAACCAAA	95.1 ± 6	62.9 ± 3.6	90.3 ± 8.6	99.7 ± 13
UGAGCUCACAUGUAAACCAAA	20.1 ± 5.1	45.6 ± 4.2	49.1 ± 1.5	4.16 ± 0.44
UAAAGGCACAUGUAAACCAAA	31.3 ± 3.1	49.6 ± 10	29.1 ± 2.2	18.9 ± 4.7
UGCAUGUACAUGUAAACCAAA	69 ± 13	63.9 ± 7.4	58.6 ± 2.1	20.6 ± 8.3
UAAACUCACAUGUAAACCAAA	103 ± 9.9	68.9 ± 7.3	110 ± 10	90.5 ± 10
